According to US20180230218A1:

Target: human cMET (MET, c-Met, HGF receptor) on cells (human) (UniProt P08581)
Experiment: flow cytometry (FACS) binding to EBC-1 cells expressing human cMET; apparent Kd printed beside the legend

Sequence of UniProt P08581 (P08581 25-1390): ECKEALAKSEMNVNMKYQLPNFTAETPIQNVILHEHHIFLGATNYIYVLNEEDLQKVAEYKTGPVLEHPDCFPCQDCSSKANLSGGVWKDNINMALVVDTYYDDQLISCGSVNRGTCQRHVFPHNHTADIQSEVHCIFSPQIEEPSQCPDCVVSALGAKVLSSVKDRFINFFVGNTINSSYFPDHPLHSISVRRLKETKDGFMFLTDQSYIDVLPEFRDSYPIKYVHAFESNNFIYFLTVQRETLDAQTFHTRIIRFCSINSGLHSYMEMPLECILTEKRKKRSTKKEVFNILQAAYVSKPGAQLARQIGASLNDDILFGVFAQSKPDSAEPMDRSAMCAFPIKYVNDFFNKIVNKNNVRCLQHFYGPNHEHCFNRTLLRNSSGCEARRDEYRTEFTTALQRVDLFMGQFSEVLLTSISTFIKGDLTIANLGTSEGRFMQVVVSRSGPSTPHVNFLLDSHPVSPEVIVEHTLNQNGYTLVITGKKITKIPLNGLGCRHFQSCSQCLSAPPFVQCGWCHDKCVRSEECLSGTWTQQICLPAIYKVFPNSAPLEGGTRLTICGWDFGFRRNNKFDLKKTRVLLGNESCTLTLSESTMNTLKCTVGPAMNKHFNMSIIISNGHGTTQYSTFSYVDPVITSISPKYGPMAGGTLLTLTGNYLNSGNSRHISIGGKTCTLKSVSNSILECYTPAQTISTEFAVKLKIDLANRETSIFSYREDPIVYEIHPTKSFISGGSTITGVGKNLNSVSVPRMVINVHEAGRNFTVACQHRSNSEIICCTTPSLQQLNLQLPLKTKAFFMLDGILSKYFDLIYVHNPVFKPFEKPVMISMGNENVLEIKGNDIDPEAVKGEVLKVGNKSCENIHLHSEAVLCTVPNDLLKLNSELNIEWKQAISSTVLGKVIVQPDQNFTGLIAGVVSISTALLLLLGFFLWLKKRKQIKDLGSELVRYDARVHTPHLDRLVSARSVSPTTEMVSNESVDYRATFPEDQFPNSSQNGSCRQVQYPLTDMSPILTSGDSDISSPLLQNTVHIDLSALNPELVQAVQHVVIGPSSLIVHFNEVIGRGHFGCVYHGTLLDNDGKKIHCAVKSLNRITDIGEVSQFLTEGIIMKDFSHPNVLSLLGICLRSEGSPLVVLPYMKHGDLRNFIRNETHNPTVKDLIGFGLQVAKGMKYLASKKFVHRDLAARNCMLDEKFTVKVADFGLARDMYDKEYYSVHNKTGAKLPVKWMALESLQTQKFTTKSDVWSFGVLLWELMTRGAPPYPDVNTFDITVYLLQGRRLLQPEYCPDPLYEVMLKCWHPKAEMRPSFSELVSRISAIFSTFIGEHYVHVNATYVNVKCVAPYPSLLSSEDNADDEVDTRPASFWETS

B1: hucMet27Gv1.3-sSPDB-DM4 (antibody, human IgG1, kappa)
light chain: EIVLTQSPATLSLSPGERATLSCRASESVDSYGNSFIHWYQQKPGQAPRLLIYRASNLESGIPARFSGSGSGTDFTLTISSLEPEDFAVYYCQQSNEEPLTFGQGTKVELKRTVAAPSVFIFPPSDEQLKSGTASVVCLLNNFYPREAKVQWKVDNALQSGNSQESVTEQDSKDSTYSLSSTLTLSKADYEKHKVYACEVTHQGLSSPVTKSFNRGEC
heavy chain: EVQLVESGGGLVQPGGSLRLSCAASGFTFSSYDMSWVRQAPGKGLEWVATINSNGVSIYYPDSVKGRFTISRDNAKNSLYLQMNSLRAEDTAVYYCAREEITTEMDYWGQGTLVTVSS[… human IgG1 constant region …]
modifications: lysines linked to sSPDB-DM4, on average 3-4 DM4 per antibody
  Kd: 440 pM

B2: hucMet27Gv1.3Hinge28-sSPDB-DM4 (antibody)
light chain: B1 light chain
heavy chain: EVQLVESGGGLVQPGGSLRLSCAASGFTFSSYDMSWVRQAPGKGLEWVATINSNGVSIYYPDSVKGRFTISRDNAKNSLYLQMNSLRAEDTAVYYCAREEITTEMDYWGQGTLVTVSSASTKGPSVFPLAPSSKSTSGGTAALGCLVKDYFPEPVTVSWNSGALTSGVHTFPAVLQSSGLYSLSSVVTVPSSSLGTQTYICNVNHKPSNTKVDKRVEPKSCDCH[… human IgG1 Fc …]
modifications: sSPDB-DM4 conjugate; preparation of this one not described
  Kd: 450 pM
